Assay results from PubChem BioAssay AID651820 (National Center for Advancing Translational Sciences (NCATS), 2012).
Hit rate of the full screen: of about 340,000 compounds, about 12,000 (3.5%) were called active. This list was built around the results that the source calls inconclusive (neither active nor inactive); the mix of calls is not that of the screen. The call rests on the fitted dose curve; in most records, active means well fitted inhibition curve with a large enough effect; inconclusive means small, poorly fitted or top-dose-only effect, or another doubt; inactive means no such curve, though single readings can be large or run the other way. Potencies of inconclusive entries are left out as doubtful fits.

Experiment: qHTS Assay for Inhibitors of Hepatitis C Virus (HCV)
Details: Huh7.5.1 HCVcc-Cre (HCVcc is cell-culture hepatitis C virus) infection, luciferase reporter, 44 h; series mostly up to 41.8 µM
Outline: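 1,000 cells/well; 4 h culture; + compound; + HCVcc-Cre (~0.5 moi); 44 h; luciferase substrate, RT 15 min; read 15 sec.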
Potency means the concentration at half of the fitted maximal effect; tags describe the fitted curve by direction and shape.

Row | SMILES | Potency
1 | O=C(c1ccco1)N1CCN(S(=O)(=O)c2ccc(Oc3ccccc3)cc2)CC1 | active: 14.1 µM
2 | Cc1ccccc1C(=O)Nc1sc(C)c(C)c1C(=O)c1ccccc1 | inconclusive [inhibitor, partial curve]
3 | O=C(Nc1cccc(Cl)c1)Nc1cc(S(=O)(=O)N2CCCCC2)ccc1Cl | active: 11.2 µM
4 | Cc1oc(C(C)(C)C)cc1C(=O)NC1CCN(Cc2ccccc2)CC1 | inconclusive [inhibitor, single point]
5 | COc1ccc(C2CC(c3cccc(Cl)c3)n3nc(N)nc3N2)cc1 (stereo not given) | inactive
6 | COc1ccc(C2/C=C\CN(S(=O)(=O)c3ccc4ccccc4c3)CC(=O)N2Cc2ccc(F)cc2)cc1 (stereo not given) | inconclusive [inhibitor, partial curve]
7 | CCCCn1c(N)c(N(CC(C)C)C(=O)c2cccc(S(=O)(=O)N3CC(C)OC(C)C3)c2)c(=O)[nH]c1=O (stereo not given) | inactive
8 | CCOC(=O)CSc1nc2c(sc3ccccc32)c(=O)n1CCCN1CCOCC1 | inconclusive [inhibitor, partial curve]
9 | COc1cc2c(cc1OC)C(CSc1ccccc1C(=O)O)=NC(C)(C)C2 | inconclusive [inhibitor, single point]
10 | Cc1ccc(C)c(NC(=O)CCC(=O)N2CCOc3ccccc32)c1 | inactive
11 | COc1ccc(NC(=O)N(C2CCCCC2)C(C)c2cccnc2)c(OC)c1 (stereo not given) | inconclusive [inhibitor, partial curve]
12 | CC1CCc2nc(NC(=O)c3ccc(S(=O)(=O)N4CCCc5ccccc54)cc3)sc2C1 (stereo not given) | inconclusive [inhibitor, partial curve]
13 | Cc1ccc(C(C(=O)NC2CCCC2)N(C(=O)Cc2cccs2)c2ccc3c(c2)OCCO3)cc1 (stereo not given) | inconclusive [inhibitor, partial curve]
14 | O=[N+]([O-])c1cccc(-c2c(-c3ccccc3)ncc3ccc(F)cc23)c1 | inactive
15 | COc1cccc(N=Nc2ccc3cccnc3c2O)c1 | active: 2 µM
16 | CN(C)CCCN(C(=O)c1cc2ccccc2oc1=O)c1nc2ccc(F)cc2s1 | inconclusive [inhibitor, single point]
17 | Cc1ccc(SCC(=O)NC(=O)NCCC(C)C)c(C)c1 | inactive
18 | COc1ccccc1S(=O)(=O)Cc1ccc(C(=O)NC(C)c2ccc3c(c2)OCCO3)o1 (stereo not given) | inactive
19 | CCCc1c(C(=O)N/N=C/c2cccc(OCc3ccc(F)cc3)c2)nnn1-c1nonc1N | inactive
20 | O=C(N/N=C/c1ccc(OC2CSC2)cc1)c1ccc(CN2CCOCC2)cc1 | inconclusive [inhibitor, full curve, poor fit]
